# Measurements from the supplement of paper PMC7826260.
# This is one part of the list. One pool of 16,384 single-stranded DNAs met each Rep nickase domain in vitro for 1 h at 37 °C with 3 µM enzyme; only the middle of the 90-letter strands is printed. A value is the log2 ratio of uncut reads to the pool without enzyme; more negative means more cut, near 0 not cut, and no call is made. Counts are relative to all reads; uncut strands gain when others are lost, and binding without cutting may add a little.
# Assays:
# Experiment in all cases: uncleaved DNA left, log2 of reads against the no-enzyme library (log2 ratio); higher = less cleavage (more negative = more Rep cleavage of the k-mer); sequences stand for … in CTCGTCCG…ACCGGAGA
# [1] = tested on: T1, Rep nickase domain of Muscovy duck circovirus
# T1 sequence (protein, residues 1-111, tag omitted): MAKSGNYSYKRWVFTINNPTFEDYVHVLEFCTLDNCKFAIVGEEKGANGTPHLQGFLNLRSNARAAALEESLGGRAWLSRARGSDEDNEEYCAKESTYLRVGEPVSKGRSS
# Description: (§1)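 A pool of 90-nt single-stranded DNAs with seven random bases just before the constant AC of the nick site (name = the seven bases) was cut by 3 µM recombinant His6-SUMO-tagged Rep nickase domain (300 nM DNA, 50 mM HEPES pH 8.0, 50 mM NaCl, 1 mM MnCl2, 1 h, 37 °C, three replicates). Uncut DNA was amplified and sequenced.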
# [2] = tested on: T2, Rep nickase domain of banana bunchy top virus
# T2 sequence (protein, residues 1-94, tag omitted): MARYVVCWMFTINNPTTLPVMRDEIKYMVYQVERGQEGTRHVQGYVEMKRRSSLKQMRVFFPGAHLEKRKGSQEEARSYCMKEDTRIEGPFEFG
# Description: as §1
# [3] = tested on: T3, Rep nickase domain of cabbage leaf curl virus
# T3 sequence (protein, residues 1-116, tag omitted): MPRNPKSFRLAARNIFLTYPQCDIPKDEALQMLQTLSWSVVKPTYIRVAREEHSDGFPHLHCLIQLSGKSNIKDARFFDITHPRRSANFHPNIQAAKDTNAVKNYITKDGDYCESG
# Description: as §1
# [4] = tested on: T4, Rep nickase domain of chickpea chlorotic dwarf virus
# T4 sequence (protein, residues 1-124, tag omitted): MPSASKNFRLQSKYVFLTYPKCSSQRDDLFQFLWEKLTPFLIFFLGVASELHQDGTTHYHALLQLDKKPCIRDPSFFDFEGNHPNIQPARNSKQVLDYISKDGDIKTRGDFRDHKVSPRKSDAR
# Description: as §1
# [5] = tested on: T5, Rep nickase domain of faba bean necrotic yellows virus
# T5 sequence (protein, residues 1-98, tag omitted): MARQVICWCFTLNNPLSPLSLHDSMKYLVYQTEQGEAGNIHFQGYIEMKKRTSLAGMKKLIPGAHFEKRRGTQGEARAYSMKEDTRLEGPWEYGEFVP
# Description: as §1
# [6] = tested on: T6, Rep nickase domain of maize striate mosaic virus
# T6 sequence (protein, residues 1-117, tag omitted): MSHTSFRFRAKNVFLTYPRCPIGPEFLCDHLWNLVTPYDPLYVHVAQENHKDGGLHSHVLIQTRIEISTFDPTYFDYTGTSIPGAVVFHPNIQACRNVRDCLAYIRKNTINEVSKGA
# Description: as §1
# [7] = tested on: T7, Rep nickase domain of porcine circovirus 2
# T7 sequence (protein, residues 2-116, tag omitted): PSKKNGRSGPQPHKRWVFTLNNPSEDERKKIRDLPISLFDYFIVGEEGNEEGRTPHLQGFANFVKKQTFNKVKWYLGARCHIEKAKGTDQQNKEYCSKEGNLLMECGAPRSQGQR
# Description: as §1
# [8] = tested on: T8, Rep nickase domain of tomato golden mosaic virus
# T8 sequence (protein, residues 1-124, tag omitted): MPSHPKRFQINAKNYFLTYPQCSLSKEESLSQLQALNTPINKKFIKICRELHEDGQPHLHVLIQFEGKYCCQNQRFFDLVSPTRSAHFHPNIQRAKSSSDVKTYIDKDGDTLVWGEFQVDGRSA
# Description: as §1
# [9] = tested on: T9, Rep nickase domain of tomato yellow leaf curl virus
# T9 sequence (protein, residues 1-136, tag omitted): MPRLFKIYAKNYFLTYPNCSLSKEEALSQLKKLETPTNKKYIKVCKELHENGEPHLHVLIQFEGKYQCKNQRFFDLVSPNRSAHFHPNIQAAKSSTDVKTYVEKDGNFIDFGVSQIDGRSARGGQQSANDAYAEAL
# Description: as §1
# [10] = tested on: T10, Rep nickase domain of wheat dwarf virus
# T10 sequence (protein, residues 1-137, tag omitted): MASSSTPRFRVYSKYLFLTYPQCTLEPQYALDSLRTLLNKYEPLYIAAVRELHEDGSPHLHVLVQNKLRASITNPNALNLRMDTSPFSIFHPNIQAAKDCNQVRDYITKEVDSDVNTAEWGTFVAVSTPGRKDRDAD
# Description: as §1
Sequence,uncleaved DNA left (log2) [1],uncleaved DNA left (log2) [2],uncleaved DNA left (log2) [3],uncleaved DNA left (log2) [4],uncleaved DNA left (log2) [5],uncleaved DNA left (log2) [6],uncleaved DNA left (log2) [7],uncleaved DNA left (log2) [8],uncleaved DNA left (log2) [9],uncleaved DNA left (log2) [10]
CGAATAC,0.0688,-0.0554,-0.0589,-0.401,0.0272,-0.436,0.105,-0.0891,0.0313,-0.071
CTTCGAA,-0.0734,-0.101,-0.228,-0.595,-0.00818,-0.993,0.0263,-0.0452,-0.121,-0.0302
GCCGGAT,0.111,-0.111,0.202,1.45,0.0814,1.75,0.223,0.161,-0.206,0.074
TAGAGTG,0.0687,0.115,-0.0676,-0.0538,0.117,0.0614,0.0621,0.199,-0.0377,-0.0234
TAAAGAA,0.00458,-0.0972,-0.472,-2.21,0.132,-0.585,-0.0521,0.0413,-0.0806,-0.187
CTGGGAT,0.0209,-0.0594,0.301,1.52,0.0372,1.82,0.134,0.0819,-0.193,-0.0678
ATGAGAG,0.0319,0.056,-0.408,-0.321,-0.014,-0.983,0.203,0.149,0.005,-0.0334
AACGGCC,0.057,0.103,-0.0231,0.205,0.0249,-0.386,-0.00233,0.0495,0.103,0.077
ACCCAGT,-0.00605,-0.0329,-0.295,-0.535,0.0419,-0.841,-0.102,0.0109,-0.0793,-0.0747
AAACTGC,-0.0043,0.0263,-0.256,-0.236,0.0112,-0.566,0.227,0.0617,-0.0863,0.0369
GGACCGG,-0.101,-0.00214,0.533,1.45,-0.0886,1.73,0.0456,0.117,0.0162,0.0551
CAAGGTC,-0.0309,-0.0264,0.133,0.506,-0.145,0.592,-0.155,-0.0685,-0.0835,-0.133
TCACCTC,0.0879,0.00282,0.0881,-0.176,-0.00588,0.206,-0.129,-0.0393,0.109,0.000476
CCCTGTT,-2.86,-0.337,-0.962,-2.76,-0.0783,-0.753,-3.2,-0.288,-0.315,-0.605
TCCTCAC,-0.136,-0.0528,-0.00865,-0.47,0.043,-0.423,0.0249,-0.0507,-0.108,-0.154
CGCGGGA,0.0665,-0.0221,0.253,0.332,-0.0442,0.406,0.0792,0.0543,0.0258,-0.013
GGTCCGC,-0.03,-0.102,0.298,0.806,-0.102,0.971,0.0477,0.0811,0.0314,0.0746
AAGGAGA,-0.0164,-0.0327,0.169,1.11,0.0895,1.08,0.0991,-0.0043,-0.27,-0.0307
ATACGCC,-0.0421,-0.00653,-0.277,-0.678,0.0372,-0.971,0.0431,-0.0699,-0.0661,-0.206
AAAATAC,-0.00266,-0.0569,-0.156,-1.03,-0.00929,-1,0.037,-0.00753,-0.0514,-0.00394
CGTAGCC,0.0656,0.0284,0.263,0.625,0.0519,0.547,0.0484,-0.0585,0.043,0.0774
AAAAAGG,0.0445,0.0444,0.163,0.538,-0.0565,-0.376,0.199,0.094,0.0175,0.0155
ATCCTGA,0.0567,0.106,0.294,1.02,0.0537,0.963,0.142,0.0924,0.06,0.0244
TCCTATT,-3.38,-2.57,-1.23,-2.8,-0.255,-0.876,-3.59,-0.27,0.0493,-0.897
TAAACGT,0.124,0.0999,-3.03,-2.75,0.0437,-0.769,-0.054,-0.511,0.0704,-1.48
CGCCTGG,0.0038,0.0242,0.0568,0.338,0.0048,0.377,0.115,-0.0457,-0.0101,0.142
GCGGGTC,0.206,0.163,0.732,1.05,0.041,1.7,0.37,0.0808,0.111,0.141
TACAAAG,0.0107,0.0512,-0.886,-0.662,0.0386,-1.34,0.116,-0.0266,0.0409,-0.00763
TATATAA,0.0783,0.0355,-0.0281,-0.333,0.0519,-0.4,0.0785,0.125,0.123,0.0904
CATTACA,-1.06,-1.39,-0.519,-2.98,-0.0992,-1.05,-1.36,-0.0843,0.0272,-0.0945
